Source: PubChem BioAssay AID1768 (National Center for Advancing Translational Sciences (NCATS), 2009)
Among all 270,000 compounds or so, about 620 (0.23%) were called active. Inconclusive means that the source gave no clear call. Such entries were picked first, then a sample of the others. The call rests on the fitted dose curve; in most records, active means well fitted inhibition curve with a large enough effect in the polarisation, with a control signal flat (not every such curve was filed as active); inconclusive means small, poorly fitted or top-dose-only effect, or effect the other way, or a change in a side signal; inactive means no such curve, though single readings can be large or run the other way; the % refers to the polarisation. A potency beside an inconclusive call is a rough fit, not a confirmed value. A note “side channel” means that the fit belongs to a control or component signal, not to the main read-out.

Biological target: Menin (Homo sapiens) (UniProt O00255)
Assay: qHTS Assay for Inhibitors Targeting the Menin-MLL Interaction in MLL Related Leukemias: Competition With Texas Red Labeled MLL-derived Mutant Peptide; on FP activity change, negative = inhibition: % of control where 0% means no effect
Details: fluorescence polarization; FP activity change, negative = inhibition: at 61.6 µM (top of the series)
Potency means the concentration at half of the fitted maximal effect; tags describe the fitted curve by direction and shape or compound fluorescence and quenching.

Sequence of UniProt O00255 (O00255 whole entry, looked up): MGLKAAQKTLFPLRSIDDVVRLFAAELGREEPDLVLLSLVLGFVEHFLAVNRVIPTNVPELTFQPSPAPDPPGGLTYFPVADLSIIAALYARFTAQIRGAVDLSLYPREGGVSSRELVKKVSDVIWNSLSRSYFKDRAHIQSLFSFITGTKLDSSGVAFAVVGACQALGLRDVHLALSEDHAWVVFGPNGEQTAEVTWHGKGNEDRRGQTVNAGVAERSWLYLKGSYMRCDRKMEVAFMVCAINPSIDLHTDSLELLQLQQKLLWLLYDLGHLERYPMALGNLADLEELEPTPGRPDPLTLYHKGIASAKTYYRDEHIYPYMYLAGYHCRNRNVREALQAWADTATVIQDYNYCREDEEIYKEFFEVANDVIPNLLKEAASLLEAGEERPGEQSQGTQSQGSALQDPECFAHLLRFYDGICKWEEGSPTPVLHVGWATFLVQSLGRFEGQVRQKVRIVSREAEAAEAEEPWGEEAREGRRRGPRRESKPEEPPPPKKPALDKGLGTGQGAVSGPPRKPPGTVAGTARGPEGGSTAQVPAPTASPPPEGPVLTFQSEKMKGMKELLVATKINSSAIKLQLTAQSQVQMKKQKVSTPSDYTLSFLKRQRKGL

Potency, inconclusive:
CN(C)S(=O)(=O)c1cc(NC(=O)c2cc(=O)c3ccccc3o2)ccc1Cl 20 µM [quencher, side channel, partial curve]
Cc1cc(O)cc2c1C(c1ccc(F)cc1)CC1(CC(C)(C)NC(=S)N1)O2 (configuration not stated) 5.01 µM [fluorescent, side channel, single point]
O=C(Nc1ccccc1N1CCN(C(=O)c2ccccc2)CC1)c1cc2ccccc2o1 5.62 µM [inhibitor, single point]
Cc1ccc(/C=c2\sc3nc(-c4cccnc4)nn3c2=O)cc1 39.8 µM [inhibitor, single point]
Cc1ccc(S(=O)(=O)N[C@@H](Cc2ccccc2)C(=O)N2CCC[C@@H]2C(=O)O)cc1 39.8 µM [inhibitor, single point]
COc1ccc(NC(=O)c2cc3ccccc3cc2OC)cc1 25.1 µM [quencher, side channel, partial curve]
COc1cc(SC#N)ccc1N=Cc1c(C)[nH]n(-c2ccc(Cl)cc2)c1=O 10 µM [quencher, side channel, partial curve]
CC(C)C[C@H](NC(=O)c1[nH]cnc1C(=O)N[C@@H](C)c1ccccc1)C(=O)OC(C)(C)C 1.26 µM [fluorescent, side channel, full curve, poor fit]
COc1cc(NS(=O)(=O)c2ccc(NC(=O)COc3ccc(C)cc3)cc2)nc(OC)n1 35.5 µM [quencher, side channel, single point]
O=C(Nc1ccc(Cl)cc1)OCc1cn(-c2ccccc2)nn1 39.8 µM [fluorescent, side channel, single point]
CCOc1ccccc1C1c2[nH]c3ccccc3c2C[C@H]2C(=O)N(C3CCN(Cc4ccccc4)CC3)CC(=O)N12 (some centres not stated) 3.98 µM [inhibitor, single point]
O=C(Nc1ccc(Cl)cc1)N(C1=NCCC1)c1ccc(OC(F)F)cc1 14.1 µM [quencher, side channel, partial curve]
Nc1nc(=S)c2ncn(C3OC(CO)C(O)C3O)c2[nH]1 (configuration not stated) 25.1 µM [quencher, side channel, partial curve]
COCCNC(=O)/C(C#N)=C/c1ccc(OCc2ccccc2)cc1 44.7 µM [inhibitor, partial curve, poor fit]
CCOC(=O)C1CCCN(C(=O)COc2ccc(S(=O)(=O)N(CC)c3ccccc3)cc2)C1 (configuration not stated) 11.2 µM [fluorescent, side channel, partial curve]
CCOC(=O)CN(C(=O)COc1ccc2c(C)cc(=O)oc2c1)c1ccc(OCC)cc1 10 µM [inhibitor, partial curve]
NNc1nnc2c3cc(F)ccc3n(CCc3ccccc3)c2n1 2.82 µM [inhibitor, partial curve]
COCCN(Cc1cc2cc3c(cc2nc1Cl)OCO3)C(=O)c1ccc(C)cc1 6.31 µM [quencher, side channel, partial curve]
O=C(Cn1nc(C(=O)O)c2ccccc2c1=O)Nc1ccccc1C(F)(F)F 39.8 µM [fluorescent, side channel, single point]
Nc1ccc2cn[nH]c2c1 22.4 µM [quencher, side channel, partial curve]
O=c1cc(N2CCCCC2)c(-c2ccccc2)nn1Cc1ccccc1 0.631 µM [fluorescent, side channel, full curve]
Cc1cc(=O)n2c3ccccc3n(CC(O)CN3CCCCC3)c2c1C#N (configuration not stated) 44.7 µM [inhibitor, single point]
CC(=O)c1c(O)c(C)c(O)c2c1OC1=CC(=O)C(C(C)=O)C(=O)[C@@]12C (some centres not stated) 31.6 µM [quencher, side channel, partial curve]
COc1cc(OC)cc(C(=O)NC(=S)Nc2cc3oc4ccccc4c3cc2OC)c1 15.8 µM [quencher, side channel, partial curve]
O=C1OCCN1C(=O)[C@H]1[C@H](c2ccccc2)C(c2ccccc2)=NN1c1ccc(Br)cc1 0.891 µM [quencher, side channel, partial curve]
Cc1[nH]c2ccccc2c1N=Nc1cc(C(=O)O)cc(C(=O)O)c1 14.1 µM [quencher, partial curve, poor fit]
COc1cc(CN2CCNC(=O)C2CC(=O)NCCc2ncccc2C)cc(OC)c1 (configuration not stated) 0.631 µM [inhibitor, full curve, poor fit]
CCOC(=O)c1ccccc1N/C=C/C(=O)c1cccs1 22.4 µM [quencher, side channel, single point]
Cc1ccc(C#CC[N+]2(CC#Cc3ccc(C)cc3)CCCCC2)cc1 12.6 µM [fluorescent, side channel, partial curve]
Cc1c(C)c2c(OCC(=O)NCC(O)c3ccccc3)cc3c(c2oc1=O)CCC(C)(C)O3 (configuration not stated) 15.8 µM [fluorescent, side channel, partial curve]
COc1ccc(C(NC(=O)CC(C)C)c2c(O)ccc3ccccc23)cc1 (configuration not stated) 22.4 µM [quencher, side channel, single point]
Cc1cc(/C=C2\C(=N)N3N=C(S(C)(=O)=O)SC3=NC2=O)c(C)n1Cc1ccccc1 25.1 µM [quencher, side channel, partial curve]
O=C(O)c1ccc2c(c1)C(=O)/C(=C/c1ccccc1)C2=O 14.1 µM [quencher, side channel, partial curve]
O=C(/C=C/c1ccco1)Nc1ccc2nn(-c3ccccc3)nc2c1 22.4 µM [quencher, side channel, partial curve]
O=C(CCCCCN1C(=O)c2cccc3cccc(c23)C1=O)NO 1 µM [inhibitor, partial curve]
Cc1ccc2nc(NC(=S)NC(=O)c3ccc(OC(C)C)cc3)sc2c1 10 µM [quencher, side channel, partial curve]
O=C(N/N=C/c1cccc(O)c1)c1ccc(NC(=O)C2CCCCC2)cc1 39.8 µM [fluorescent, single point]
Cc1cccn2cc(-c3ccc(NC(=O)Cc4ccccc4)cc3)nc12 35.5 µM [fluorescent, side channel, single point]
O=C(NCCc1ccccc1)C(=O)NN=C1CCCC1 25.1 µM [inhibitor, single point]
CCCCCCc1ccc(N2C[C@H](CCCCC)[C@@H](CC(=O)NCc3ccc(OC)cc3)C2=O)cc1 12.6 µM [inhibitor, partial curve]
Nc1sc(-c2ccccc2)c(Cc2ccccc2)c1C(=O)O 25.1 µM [quencher, side channel, partial curve]
CCOC(=O)Cc1cc(=O)n2[nH]cc(-c3ccc(Cl)cc3)c2n1 14.1 µM [quencher, side channel, partial curve]
Cn1c(=O)c2c(SCC(=O)NCc3ccco3)nc(-c3ccccc3Cl)nc2n(C)c1=O 28.2 µM [fluorescent, side channel, single point]
COC(=O)c1ccc(N2NC(=O)/C(=C/c3cc(OC)c(O)c(OC)c3)C2=O)cc1 35.5 µM [quencher, side channel, single point]
COc1cc(C)cc(CN2CCC(Cc3ccccc3)CC2)c1O 25.1 µM [fluorescent, side channel, single point]
O=C(CCCN1C(=O)/C(=C/c2cccs2)SC1=S)Nc1cccc(O)c1 25.1 µM [quencher, side channel, single point]
COc1ccc(C2=Nn3c(nnc3-c3cccc(OC)c3OC)SC2)cc1 39.8 µM [inhibitor, single point]
O=C(c1ccc(NC(=S)Nc2ccc(Cl)c(Cl)c2)cc1)N1CCCC1 20 µM [quencher, side channel, single point]
CN1CCC2(CC1)C1CN(C)CC=C1C(C#N)=C(N)C2(C#N)C#N (configuration not stated) 39.8 µM [inhibitor, single point]

Potency, inactive:
O=C(N/N=C/c1ccccc1O)NC12CC3CC(CC(C3)C1)C2
CCCN1CCC(NC(=O)Nc2cc(Cl)ccc2OC)CC1
COc1cc2c(cc1NC(=O)COc1ccc3ccccc3c1)oc1ccccc12
Cc1ccc(-c2n[nH]c(=O)c3ccccc23)cc1S(N)(=O)=O
Cc1ccccc1CS(=O)(=O)Cc1ccc(C(=O)NCCc2ccccc2)o1
O=C(Cc1cccs1)N/N=C/C=C\c1ccco1
N/C(=N/OCc1cccc([N+](=O)[O-])c1)c1nonc1N

FP activity change, negative = inhibition, inactive:
CCCCc1nc2c(c3c1C[C@H](C)OC3)CN(S(=O)(=O)c1ccc3c(c1)OCCN3C)CC2 -11.5% [at 11.7 µM]
